The whole screen tested about 52,000 compounds, of which about 4,300 (8.3%) were called active. Cut-off read from the data, not from the text of the source: active = survival mostly below about 52% (no sharp cut-off); inactive = mostly above about 56%. Some of the results follow.
Each compound was assayed on DeltatarO mutant (assay: S. aureus survival, RN4220 and DeltatarO strains – OD600, teichoic acid synthesis inhibitors, primary screen (AID 463173)). Conditions: S. aureus RN4220 wild type/DeltatarO growth, OD600, 18 h, active compounds read low, screened at 18.75 µg/mL (by protocol).

Row | Compound | survival
1 | O=C(Cc1csc2ccccc12)NCc1ccc(F)cc1 | inactive: 71%
2 | COc1cccc(NC(=O)CSC2=Nc3ccccc3C3=NC(CC(=O)NCc4cccs4)C(=O)N23)c1 (centres undefined) | inactive: 85%
3 | COc1ccc(C2c3c(oc4cc(C)cc(C)c4c3=O)C(=O)N2Cc2ccco2)cc1OC (centres undefined) | inactive: 69%
4 | Cc1cccc(N2CCN(C(=O)c3cc4c(=O)[nH]c5ccc(C)cc5c4s3)CC2C)c1 (centres undefined) | inactive: 95%
5 | COc1ccc(CNC(=O)CSCc2cnn(-c3ccccc3)c2-n2cccc2)cc1OC | inactive: 106%
6 | CC(=O)N1CCN(c2nc3c(F)cc(F)cc3s2)CC1 | inactive: 73%
7 | COc1ccc(Cn2c(CNC(=O)Cc3cccc([N+](=O)[O-])c3)nc3cccnc32)cc1 | active: -5%
8 | COCCCNC(=O)C1CCCN(c2ncnc3onc(C)c23)C1 (centres undefined) | inactive: 91%
9 | COc1ccc(CCNC(=O)c2ccc3c(Cl)c4c(nc3c2)CCCC4)cc1OC | inactive: 75%
10 | Cc1c(CCC(=O)NCc2ccc(F)cc2)c(=O)oc2cc(O)ccc12 | inactive: 103%
11 | Cc1ccc2oc(C(=O)Nc3nc(-c4ccc(F)cc4)ns3)c(C)c2c1 | inactive: 71%
12 | Cc1ccccc1OCC(=O)Nc1ccc(C(=O)OCc2cc(=O)n3c(C)csc3n2)cc1 | inactive: 126%
13 | CCOC(=O)c1ccc(CN(Cc2ccc(OC)cc2)S(=O)(=O)c2cccc(C(F)(F)F)c2)cc1 | inactive: 73%
14 | COc1ccccc1C(=O)Nc1c(C(=O)c2ccccc2)oc2ccccc12 | active: -1%
15 | CCOc1ccc(N(CC)C(=O)c2noc3c2COc2ccc(C)cc2-3)cc1 | inactive: 73%
16 | O=c1c(N2CCc3ccccc3C2)csc2ccc(F)cc12 | inactive: 70%
17 | CC1=C(C(=O)Nc2ccccc2C)C(c2cccs2)n2nc(SCc3cc(C)ccc3C)nc2N1 (centres undefined) | inactive: 100%
18 | CCOc1ccccc1NC(=O)C1=C(C)Nc2ncnn2C1c1sccc1C (centres undefined) | inactive: 92%
19 | Cc1ccc(CNC(=O)c2c(-c3ccc(Br)cc3)noc2C)o1 | inactive: 71%
20 | O=C(CCCn1c(=O)c2cccn2c2cccnc21)Nc1ccccc1C(F)(F)F | inactive: 86%
21 | CCOC(=O)Cn1c(=O)n(CC2CCCO2)c2nc(-c3ccccc3Cl)nc(C(N)=O)c21 (centres undefined) | inactive: 81%
22 | COc1ccc(NC(=O)c2c(N)c(C(=O)c3ccc(OC)cc3)n3ccccc23)cc1 | inactive: 86%
23 | CCOC(=O)c1cc2sccc2n1CC(=O)N1CCCC1 | inactive: 97%

Row | Compound | survival
24 | Cc1c(C(=O)NCCc2ccc(Cl)cc2)cccc1-n1cnc2cccnc21 | inactive: 78%
25 | COc1ccc(N2CCN(C(=O)CSc3nc4ccccc4nc3Cc3ccc(Cl)cc3)CC2)cc1 | inactive: 74%
26 | CCn1c2ccccc2c2cc(CN3CCN(Cc4ccc(OC)c(OC)c4)CC3)ccc21 | active: 17%
27 | CCOc1ccc(CC(=O)NCCS(=O)(=O)N2CCN(c3ccc(OC)cc3)CC2)cc1 | inactive: 94%
28 | Cc1c(C(=O)NCc2ccccc2)oc2ccc(S(=O)(=O)N3CCC(C)CC3)cc12 | inactive: 55%
29 | Cc1ccc(NC(=O)C(=O)NCC(c2cccnc2)N2CCN(C)CC2)cc1 (centres undefined) | inactive: 79%
30 | O=C(NCCc1ccc(Cl)cc1)C(=O)NCC(c1ccco1)S(=O)(=O)c1ccccc1 (centres undefined) | inactive: 118%
31 | CCn1c(CN2CCCCC2)nc2cc(NC(=O)COc3ccccc3C(C)(C)C)ccc21 | inactive: 101%
32 | Cc1coc2c1c(C)cc1oc(=O)c(CC(=O)NCCc3ccc(Cl)cc3)c(C)c12 | inactive: 75%
33 | COc1ccc(C)cc1NC(=O)c1ccc2nc(Cc3ccccc3)oc2c1 | inactive: 118%
34 | COc1ccc(CCNC(=O)c2c(O)nc3c(C)cccn3c2=O)cc1OC | inactive: 91%
35 | CCC(CC)C(=O)Nc1nnc(SCc2cc(=O)c3ccccc3[nH]2)s1 | inactive: 115%
36 | COCCNC(=O)CSc1nc2cc3c(cc2c(=O)n1CCCC(=O)NCCc1ccc(OC)c(OC)c1)OCO3 | inactive: 64%
37 | CCC(C)(C)NC(=O)C1CCC(CNS(=O)(=O)c2ccc3c(c2)CC(C)N3C(C)=O)CC1 (centres undefined) | inactive: 69%
38 | Cc1ccc(Cl)cc1N1CCN(C2(c3ccccc3)C(=O)c3ccccc3C2=O)CC1 | inactive: 100%
39 | COc1cccc(NC(=O)Cn2c(=O)n(-c3cccc(OC)c3)c(=O)c3sc4ccccc4c32)c1 | inactive: 65%
40 | CCCCNC(=O)CCCN1C(=O)CCn2nc(-c3cccn3C)cc21 | inactive: 65%
41 | CCOCCCNC(=O)CN1C(=O)c2cccnc2Sc2ccccc21 | inactive: 84%
42 | CCC(C)NS(=O)(=O)c1ccc(N2CCCCS2(=O)=O)cc1 (centres undefined) | inactive: 124%
43 | COc1ccc(C)cc1NC(=O)C1CCCN(S(=O)(=O)c2ccc3c(c2)CCCN3C(C)=O)C1 (centres undefined) | inactive: 82%
44 | COc1cccc2c1cc1c(=O)n(CC(=O)N3CCCCC3)nc(C)n12 | inactive: 94%
45 | Cc1ccc(-n2c3c(c(=O)[nH]c2=O)C(NS(=O)(=O)c2ccc(Cl)cc2)(C(F)(F)F)C(=O)N3)cc1 (centres undefined) | inactive: 71%
46 | Fc1cccc(NCc2ccccc2-c2nnc(-c3ccccc3Cl)o2)c1 | inactive: 110%

Row | Compound | survival
47 | O=c1c2oc3ccccc3c2n(Cc2ccc(Cl)cc2)c(=O)n1Cc1ccc2c(c1)OCO2 | inactive: 66%
48 | CCc1ccc(NC(=O)CSc2nc(-c3ccccc3)no2)cc1 | inactive: 81%
49 | CN1CCN(C(=O)Nc2ccc(Cc3ccc(NC(=O)N4CCN(C)CC4)cc3)cc2)CC1 | inactive: 58%
50 | COc1ccc(CCNc2ncnc3c2nnn3C)cc1OC | inactive: 80%
51 | CN(C)S(=O)(=O)N(CC(=O)Nc1ccc(Br)cc1F)c1ccccc1 | inactive: 68%
52 | Fc1ccccc1N1CCN(c2nnc(C(F)(F)F)c3nnn(Cc4ccccc4)c23)CC1 | inactive: 78%
53 | O=C(Cn1c(SCCOc2ccccc2Cl)nc2ccccc21)N1CCOCC1 | active: 39%
54 | NC(=S)NN=C1c2cc(S(=O)(=O)N3CCOCC3)ccc2-c2ccc(S(=O)(=O)N3CCOCC3)cc21 | inactive: 94%
55 | COc1ccc2c(CNCc3ccco3)c(C(=O)O)n(Cc3ccc(F)cc3Cl)c2c1 | inactive: 96%
56 | O=C(NCc1ccccc1Cl)c1ccc2c(c1)N(Cc1ccccc1)C(=O)c1ccccc1S2 | inactive: 144%
57 | CCOC(=O)c1[nH]c2ccccc2c1NC(=O)c1c(F)cccc1F | inactive: 79%
58 | CCOC(=O)c1sc2ncn(CC(=O)Nc3cccc(C)c3)c(=O)c2c1C | inactive: 66%
59 | C1CCC(Nc2nnnn2C2CCCCC2)CC1 | inactive: 79%
60 | COc1cccc(OCCCn2c(-c3ccc(Cl)cc3)nc3ccccc3c2=O)c1 | inactive: 61%
61 | CCc1cccc(NC(=O)c2cc(-c3ccccc3)n[nH]2)c1 | inactive: 90%
62 | COc1cc(NC(C)=O)ccc1-c1cc2ccccc2oc1=O | inactive: 96%
63 | O=C(Nc1cccc(Cl)c1)C1CCN(c2nc3ccccc3nc2C(F)(F)F)CC1 | inactive: 70%
64 | COc1ccccc1Cn1ccn(CC(=O)Nc2c(C)cc(C)cc2C)c(=O)c1=O | active: 41%
65 | CC(C)C(=O)NC1CC(=O)N(c2ccc3c(c2)OCCO3)C1 (centres undefined) | inactive: 116%
66 | Cc1nnc(N2CCN(c3ccc(Cl)cc3)CC2)c2c1nnn2Cc1ccc(F)cc1 | inactive: 77%
67 | Oc1ccc(Nc2nc(-c3ccc(O)cc3)cs2)cc1 | active: 1%
68 | COc1cccc(C(c2sc3nc(-c4ccco4)nn3c2O)N2CCCC2)c1 (centres undefined) | inactive: 71%
69 | Cc1ccc(-n2nc(C)c3c(C)cc(=O)n(CC(=O)Nc4ccc(C(C)C)cc4)c32)cc1 | inactive: 107%

Row | Compound | survival
70 | CN(C1CCCCC1)S(=O)(=O)c1ccc(F)c(C(=O)Nc2ccc(C(F)(F)F)cc2)c1 | inactive: 83%
71 | COc1ccc(NC(=O)c2c(NCc3cccs3)sc3c2CCCCC3)cc1 | inactive: 72%
72 | Cc1c(C(=O)Nc2cccc(F)c2)sc2nc(-c3cc4ccccc4oc3=O)[nH]c(=O)c12 | active: 37%
73 | CC1CCCCN1C(=O)c1ccc2c(c1)N(Cc1ccc(Cl)cc1)C(=O)c1ccccc1S2=O (centres undefined) | inactive: 97%
74 | COc1cc(OC)cc(C(=O)NCCc2csc(-c3cccc(C)c3)n2)c1 | inactive: 88%
75 | CCc1ccc(NC(=O)C(=O)NCCc2sc(-c3ccc(OC)c(OC)c3)nc2C)cc1 | inactive: 78%
76 | O=C(O)C1C2C=CC(O2)C1C(=O)N1CCOCC1 (centres undefined) | inactive: 94%
77 | CN(C)c1ccc(CN2CCc3nc(N4CCN(c5ccccn5)CC4)ncc3C2)cc1 | inactive: 83%
78 | Cc1nc2c(c(SCC(=O)Nc3ccccc3C(F)(F)F)n1)CCC2 | inactive: 60%
79 | CC(C)N(Cc1ccccc1)C(=O)c1cc2ccc3cccnc3c2[nH]1 | inactive: 81%
80 | CCOc1ccccc1N1CC(c2nc3ccccc3n2CCCOc2ccccc2)CC1=O (centres undefined) | inactive: 68%
81 | CCC(CC)C(=O)Nc1ccc(OCc2cc(=O)n3ccc(C)cc3n2)cc1 | inactive: 126%
82 | CCOC(=O)C1CCN(C(=O)c2nn(-c3ccc(C)cc3)c(=O)c3c2c2ccccc2n3C)CC1 | inactive: 92%
83 | CCCCNC(=O)c1cnc2sc(N3CCCCC3)nn2c1=O | inactive: 80%
84 | Cc1ccccc1Cn1c(=O)n(Cc2ccco2)c(=O)c2oc3ccccc3c21 | inactive: 88%
85 | O=C(c1ccc2c(c1)CCN2S(=O)(=O)c1ccc(Cl)cc1)N1CCN(c2ccccc2F)CC1 | inactive: 61%
86 | COc1ccc(Nc2ncc(C(=O)N3CCN(c4ccc(OC)cc4)CC3)c3ccccc23)cc1 | inactive: 74%
87 | Cc1cc(NC(=O)c2cc(-c3ccc(Cl)cc3)on2)n(-c2ccccc2)n1 | inactive: 62%
88 | COc1ccc(CNC(=O)Cc2ccc(NC(=O)N3CCSc4ncccc43)cc2)cc1OC | inactive: 88%
89 | COC(=O)c1cc2oc3ccccc3c2n1CC(=O)Nc1ccc(C)c(F)c1 | inactive: 72%

Source: PubChem BioAssay AID463173 (ICCB-Longwood Screening Facility, Harvard Medical School, 2010)
